Test results from the RNAGym collection of RNA variant scans (doi:10.1093/nar/gkz1192).
Read counts are not given, so values of variants with three or more changes are uncertain.

B1: CPEB3 Ribozyme (parent)
chain: UAACAGGGGGCCACAGCAGAAGCGUUCACGUCGCAGCCCCUGUCAGAUUCUGGUGAAUCUGCGAAUUCUGCUGUAUAUCUC

Variants of: B1
Experiment: self-cleavage, relative activity (ratio to wild type); higher = more cleavage; in vitro, sequencing
In short: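 For each CPEB3 ribozyme variant, relative activity is its cleaved/total read fraction divided by the unmutated ribozyme's. Barcoded error-prone PCR libraries were transcribed by T7 RNA polymerase (5 hours, 37°C) and held in DNase I for 15 min before an EDTA stop, with cleavage occurring throughout. Template-switching reverse transcription and Illumina sequencing were used to read the RNAs. A 5-read minimum applied, and results are the mean of three batches.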

Row | Variant | self-cleavage
1 | A5G G9U U25C U72A | 0.23
2 | A5G G9U U48C U72C | 0.16
3 | A5G G10A A13G A18U A47G U69C | 0.07
4 | A5G G10A A13G G30A U31C A35U A45G | 0.1
5 | A5G G10A A20G U25A U49C U67C | 0.04
6 | A5G G10A C27U U31A A64G | 0.1
7 | A5G G10A C29G A47G A75U | 0.14
8 | A5G G10A G19U A56G U60G U78G | 0.04
9 | A5G G10A U26C U66C U80C | 0.26
10 | A5G G10A U43C U67A U69C | 0.08
11 | A5G G10C C71G | 0.14
12 | A5G G16U U54C G73C A75U | 0.23
13 | A5G G22A U31C A56G U60C | 0.17
14 | A5G G22A U51C | 0.35
15 | A5G G24A A35G A45C U67C A77U U80C | 0.11
16 | A5G G24A A56G U67A | 0.43
17 | A5G G24A U25C U31G G33A | 0.15
18 | A5G G24A U43A U80A | 0.08
19 | A5G G30C U41A | 0.35
20 | A5G G33A C40U U51A A64G C71G U78C | 0.03
21 | A5G G33A U54A U60C | 0.1
22 | A5G G36C U41C U80A | 0.63
23 | A5G G42A A47G U66C | 0.15
24 | A5G G42A C81A | 0.59

Row | Variant | self-cleavage
25 | A5G G53A A57G A64U | 0.26
26 | A5G G53C A57U | 0.41
27 | A5G G55A A77U | 0.49
28 | A5G U25A A35G C40A U41C | 0.32
29 | A5G U25A C29U U60C A64G U72A U80A | 0.05
30 | A5G U25A C39A A65C U67G U80C | 0.06
31 | A5G U25A U72A | 0.43
32 | A5G U25C A28C G63U A64U U69C | 0.11
33 | A5G U25C A28U C40U A47G | 0.09
34 | A5G U25C A28U U49A | 0.12
35 | A5G U25C A35G A45C | 0.43
36 | A5G U25C A35U U76C | 0.12
37 | A5G U25C A45G A57G U78C | 0.04
38 | A5G U25C A47G A56U U69A | 0.15
39 | A5G U25C A47U U60C | 0.08
40 | A5G U25C A64U | 0.32
41 | A5G U25C C40U | 0.4
42 | A5G U25C C44U U48C A57G | 0.33
43 | A5G U25C G33C | 0.11
44 | A5G U25C G61A A77G | 0.12
45 | A5G U25C U26A U72C | 0.61
46 | A5G U25C U26C U49C A56U | 0.69
47 | A5G U25C U43C A56G U78C | 0.25
48 | A5G U25C U43C C44U | 0.11

Row | Variant | self-cleavage
49 | A5G U25C U49C U51C | 0.28
50 | A5G U25C U49C U72C | 0.24
51 | A5G U25C U54C U66A U74C | 0.48
52 | A5G U25C U69C U76C | 0.67
53 | A5G U25C U78C U80C | 0.11
54 | A5G U25G A35U U41A U72A | 0.09
55 | A5G U25G A35U U48C A56U U74C U76C | 0.15
56 | A5G U26A A28G G33A A35G U49A C50A | 0.19
57 | A5G U26A U41A | 0.07
58 | A5G U26A U43A U49C U72C U80C | 0.08
59 | A5G U26A U54C A57G | 0.31
60 | A5G U26A U58G C62U | 0.25
61 | A5G U26A U60C | 0.16
62 | A5G U26C A28G U49C | 0.08
63 | A5G U26C A57U | 0.38
64 | A5G U26C A64U | 0.22
65 | A5G U26C A64U U76A | 0.25
66 | A5G U26C C27A U51C U69A | 0.09
67 | A5G U26C C34U A35G U72C U78C | 0.12
68 | A5G U26C C40U A45U U51A U58G U74G | 0.09
69 | A5G U26C C62U U72C U76A | 0.14
70 | A5G U26C G53C U72C G73A | 0.2
71 | A5G U26C U31A U51C U66C A77U | 0.17
72 | A5G U26C U31C U67C | 0.21

Row | Variant | self-cleavage
73 | A5G U26C U41C | 0.13
74 | A5G U26C U43G U49C U80A | 0.15
75 | A5G U26C U49C | 0.07
76 | A5G U26C U51C A56G | 0.14
77 | A5G U26C U60A U69C U80C | 0
78 | A5G U26G U31C U72C C81U | 0.14
79 | A5G U31A A47U | 0.26
80 | A5G U31A U41A U80A | 0.13
81 | A5G U31A U51C A64G U67A U72C | 0.06
82 | A5G U31A U58C | 0.4
83 | A5G U31C C39A U54C U72G | 0.09
84 | A5G U31C G52U | 0.34
85 | A5G U31C U41C A57G U60C | 0.25
86 | A5G U31C U41C U69A U72C | 0.1
87 | A5G U31C U48A U54G | 0.63
88 | A5G U31C U69C | 0.46
89 | A5G U31C U69C U72A C81U | 0.21
90 | A5G U31C U72A | 0.36
91 | A5G U31C U72C | 0.37
92 | A5G U41A A45C U66C | 0.2
93 | A5G U41A A64C | 0.35
94 | A5G U41A U67C | 0.31
95 | A5G U41A U72C | 0.35
96 | A5G U41C G61A | 0.28

Row | Variant | self-cleavage
97 | A5G U41C G63U | 0.37
98 | A5G U41C U49C | 0.29
99 | A5G U41C U51C | 0.53
100 | A5G U41C U72C | 0.83
101 | A5G U41C U74C | 0.46
102 | A5G U43A U76C | 0.74
103 | A5G U43C A45C A57G U69G | 0.2
104 | A5G U43C U49C | 0.1
105 | A5G U43C U51A A56G | 0.33
106 | A5G U43C U54C A57U U67C | 0.11
107 | A5G U43C U58C U67A | 0.2
108 | A5G U43C U78A | 0.13
109 | A5G U43G U60A U66C | 0.49
110 | A5G U43G U72A | 0.33
111 | A5G U48C A56G U76G | 0.39
112 | A5G U48C A57G U74A | 1.35
113 | A5G U48C U51A U74A | 0.46
114 | A5G U49C U60A | 0.42
115 | A5G U49C U60C U80C | 0.21
116 | A5G U54A A75U | 0.6
117 | A5G U54A U67C | 0.17
118 | A5G U54A U67C U72C U74C | 0.16
119 | A5G U58C U80C | 0.16
120 | A5G U60A G70C | 0.31

Row | Variant | self-cleavage
121 | A5G U60C A64U U67A U76A | 0.23
122 | A5G U60C A77U | 0.28
123 | A5G U66A U78C | 0.54
124 | A5G U67A U72C | 0.44
125 | A5G U78A U80G | 1.07
126 | A5G U78C U80C | 0.3
127 | A5U A13C A18G C23U | 0.53
128 | A5U A13G A56G C68A | 0.17
129 | A5U A13G A64U U69G | 0.27
130 | A5U A13G C27U U51A | 0.32
131 | A5U A13G G33A A77G | 0.61
132 | A5U A13G U31C G46A U58C U72C | 0.18
133 | A5U A13G U43A U66C | 0.41
134 | A5U A13G U76C | 0.98
135 | A5U A13U A15C U26C U41C U66A C81U | 0.44
136 | A5U A13U A20U A45U A65G U78C | 0.09
137 | A5U A13U A21G | 0.51
138 | A5U A13U A21G U49C U54C A64C | 0.05
139 | A5U A13U C23U C59U A75U | 0.18
140 | A5U A13U G42U U51A U58A U78C | 0.12
141 | A5U A13U U31A | 0.86
142 | A5U A15C A28G C62A | 0.32
143 | A5U A15C A56C A57G U58C U69A | 0.18
144 | A5U A15G A18G U69C U78A | 1.23

Row | Variant | self-cleavage
145 | A5U A15G A20G C32U U54C U80A C81U | 0.34
146 | A5U A15G A45G U54A U72C | 1.27
147 | A5U A15G A47G U69C | 0.15
148 | A5U A15G A64G U67G | 0.66
149 | A5U A15G U26C C37U U43A U60G U72A | 0.05
150 | A5U A15G U41A A57G | 0.3
151 | A5U A15G U51G U66C U78C | 0.61
152 | A5U A15G U54C U76C | 0.94
153 | A5U A15U A21U U31C A57G U80C | 0.24
154 | A5U A15U A35G A56U U60A A65G | 0.56
155 | A5U A15U A45G A56U U58C | 0.13
156 | A5U A15U A65U U67C | 0.17
157 | A5U A15U C23U A47G A56U U72G | 0.09
158 | A5U A15U G30A A35U U72C | 0.24
159 | A5U A15U U41C U43C G55C | 0.15
160 | A5U A15U U49C A77G U78C | 0.1
161 | A5U A15U U51A U67A U69C | 0.31
162 | A5U A18C A21G U31G | 0.41
163 | A5U A18C C40U A77G | 0.39
164 | A5U A18G A20G U72C | 0.45
165 | A5U A18G A20U U31C A57G | 0.03
166 | A5U A18G A28G C62U | 0.1
167 | A5U A18G A35U A45G G73A | 0.41
